# Data: the supplement of paper PMC8728848
# This is one part of the list.
# Assays:
# Assay in all cases: glycan array binding signal (z-score within array); higher = stronger binding
# Conditions in all cases: glycan notation: IUPAC condensed, linker removed
# [1] = target: Kdn(a2-3)Gal(b1-3)GlcNAc
# Method in brief: (§1)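 Columns mapping to the same glycan were averaged after glycan names were converted to IUPAC-condensed notation. The data come from 3228 arrays in the Consortium for Functional Glycomics database, limited to those with an available protein sequence. Binding is reported as a within-array Z-score averaged across arrays of one protein sequence and across linkers.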
# [2] = target: Kdn(a2-3)Gal(b1-4)Glc
# Method in brief: as §1
# [3] = target: Kdn(a2-3)Gal(b1-4)GlcNAc
# Method in brief: as §1
# [4] = target: Kdn(a2-3)Gal(b1-4)[Fuc(a1-3)]GlcNAc
# Method in brief: as §1
# [5] = target: Kdn(a2-6)Gal(b1-4)GlcNAc
# Method in brief: as §1
# [6] = target: Man(a1-2)Man(a1-2)Man(a1-3)Man
# Method in brief: as §1
# [7] = target: Man(a1-2)Man(a1-2)Man(a1-6)[Man(a1-3)]Man
# Method in brief: as §1
# [8] = target: Man(a1-2)Man(a1-3)Man
# Method in brief: as §1
# [9] = target: Man(a1-2)Man(a1-3)[Man(a1-2)Man(a1-6)]Man
# Method in brief: as §1
# [10] = target: Man(a1-2)Man(a1-3)[Man(a1-2)Man(a1-6)]Man(a1-6)[Man(a1-2)Man(a1-2)Man(a1-3)]Man
# Method in brief: as §1
# [11] = target: Man(a1-2)Man(a1-3)[Man(a1-2)Man(a1-6)]Man(a1-6)[Man(a1-2)Man(a1-2)Man(a1-3)]Man(b1-4)GlcNAc(b1-4)GlcNAc
# Method in brief: as §1
# [12] = target: Man(a1-2)Man(a1-3)[Man(a1-6)]Man(a1-6)[Man(a1-2)Man(a1-3)]Man(b1-4)GlcNAc(b1-4)GlcNAc
# Method in brief: as §1
# [13] = target: Man(a1-2)Man(a1-6)[Man(a1-3)]Man(a1-6)[Man(a1-2)Man(a1-2)Man(a1-3)]Man
# Method in brief: as §1
# [14] = target: Man(a1-2)Man(a1-6)[Man(a1-3)]Man(a1-6)[Man(a1-2)Man(a1-2)Man(a1-3)]Man(b1-4)GlcNAc(b1-4)GlcNAc
# Method in brief: as §1
# [15] = target: Man(a1-3)[Man(a1-6)]Man
# Method in brief: as §1
# [16] = target: Man(a1-3)[Man(a1-6)]Man(a1-6)[Man(a1-2)Man(a1-3)]Man(b1-4)GlcNAc(b1-4)GlcNAc
# Method in brief: as §1
# [17] = target: Man(a1-3)[Man(a1-6)]Man(a1-6)[Man(a1-3)]Man
# Method in brief: as §1
# [18] = target: Man(a1-3)[Man(a1-6)]Man(a1-6)[Man(a1-3)]Man(b1-4)GlcNAc(b1-4)GlcNAc
# Method in brief: as §1
# [19] = target: Man(a1-3)[Man(a1-6)]Man(b1-4)GlcNAc(b1-4)GlcNAc
# Method in brief: as §1
# [20] = target: Man(a1-3)[Man(a1-6)]Man(b1-4)GlcNAc(b1-4)[Fuc(a1-6)]GlcNAc
# Method in brief: as §1
# [21] = target: Man(a1-6)Man
# Method in brief: as §1
# [22] = target: Man(b1-4)GlcNAc
# Method in brief: as §1
# [23] = target: Neu5Ac(a2-3)Gal
# Method in brief: as §1
# [24] = target: Neu5Ac(a2-3)Gal(b1-3)GalNAc
# Method in brief: as §1
# [25] = target: Neu5Ac(a2-3)Gal(b1-3)GalNAc(b1-3)Gal(a1-4)Gal(b1-4)Glc
# Method in brief: as §1
# [26] = target: Neu5Ac(a2-3)Gal(b1-3)GalNAc(b1-4)[Neu5Ac(a2-3)]Gal(b1-4)Glc
# Method in brief: as §1
# [27] = target: Neu5Ac(a2-3)Gal(b1-3)GalNAc(b1-4)[Neu5Ac(a2-8)Neu5Ac(a2-3)]Gal(b1-4)Glc
# Method in brief: as §1
# [28] = target: Neu5Ac(a2-3)Gal(b1-3)GalNAc6S
# Method in brief: as §1
# [29] = target: Neu5Ac(a2-3)Gal(b1-3)GlcNAc
# Method in brief: as §1
# [30] = target: Neu5Ac(a2-3)Gal(b1-3)GlcNAc(b1-2)Man(a1-3)[GlcNAc(b1-4)][Neu5Ac(a2-3)Gal(b1-3)GlcNAc(b1-2)Man(a1-6)]Man(b1-4)GlcNAc(b1-4)GlcNAc
# Method in brief: as §1
# [31] = target: Neu5Ac(a2-3)Gal(b1-3)GlcNAc(b1-2)Man(a1-3)[Neu5Ac(a2-3)Gal(b1-3)GlcNAc(b1-2)Man(a1-6)]Man(b1-4)GlcNAc(b1-4)GlcNAc
# Method in brief: as §1
# [32] = target: Neu5Ac(a2-3)Gal(b1-3)GlcNAc(b1-3)Gal(b1-3)GlcNAc
# Method in brief: as §1
# [33] = target: Neu5Ac(a2-3)Gal(b1-3)GlcNAc(b1-3)Gal(b1-4)GlcNAc
# Method in brief: as §1
# [34] = target: Neu5Ac(a2-3)Gal(b1-3)GlcNAc(b1-3)GalNAc
# Method in brief: as §1
# [35] = target: Neu5Ac(a2-3)Gal(b1-3)GlcNAc(b1-6)GalNAc
# Method in brief: as §1
# [36] = target: Neu5Ac(a2-3)Gal(b1-3)GlcNAc6S
# Method in brief: as §1
# [37] = target: Neu5Ac(a2-3)Gal(b1-3)[Fuc(a1-4)]GlcNAc
# Method in brief: as §1
# [38] = target: Neu5Ac(a2-3)Gal(b1-3)[Fuc(a1-4)]GlcNAc(b1-3)Gal(b1-3)[Fuc(a1-4)]GlcNAc
# Method in brief: as §1
binder,measurement,setting,value
"Gal 4 (Homo sapiens), Q8K419 (protein) MAYVPAPGYQPTYNPTLPYKRPIPGGLSVGMSVYIQGMAKENMRRFHVNFAVGQDDGADVAFHFNPRFDGWDKVVFNTMQSGQWGKEEKKKSMPFQKGKHFELVFMVMPEHYKVVVNGNSFYEYGHRLPVQMVTHLQVDGDLELQSINFLGGQPAAAPYPGAMTIPAYPAGSPGYNPPQMNTLPVMTGPPVFNPRVPYVGALQGGLTVRRTIIIKGYVLPTARNFVINFKVGSSGDIALHLNPRIGDSVVRNSFMNGSWGAEERKVAYNPFGPGQFFDLSIRCGMDRFKVFANGQHLFDFSHRFQAFQMVDTLEINGDITLSYVQI",glycan array binding signal (z-score),[1],-0.198
same,glycan array binding signal (z-score),[2],-0.243
same,glycan array binding signal (z-score),[3],-0.201
same,glycan array binding signal (z-score),[4],-0.19
same,glycan array binding signal (z-score),[5],-0.198
same,glycan array binding signal (z-score),[6],-0.198
same,glycan array binding signal (z-score),[7],-0.198
same,glycan array binding signal (z-score),[8],-0.194
same,glycan array binding signal (z-score),[9],-0.202
same,glycan array binding signal (z-score),[10],-0.204
same,glycan array binding signal (z-score),[11],-0.178
same,glycan array binding signal (z-score),[12],-0.208
same,glycan array binding signal (z-score),[13],-0.201
same,glycan array binding signal (z-score),[14],-0.206
same,glycan array binding signal (z-score),[15],-0.202
same,glycan array binding signal (z-score),[16],-0.08
same,glycan array binding signal (z-score),[17],-0.203
same,glycan array binding signal (z-score),[18],-0.202
same,glycan array binding signal (z-score),[19],-0.2
same,glycan array binding signal (z-score),[20],-0.21
same,glycan array binding signal (z-score),[21],-0.192
same,glycan array binding signal (z-score),[22],-0.203
same,glycan array binding signal (z-score),[23],-0.196
same,glycan array binding signal (z-score),[24],-0.188
same,glycan array binding signal (z-score),[25],-0.103
same,glycan array binding signal (z-score),[26],-0.183
same,glycan array binding signal (z-score),[27],-0.201
same,glycan array binding signal (z-score),[28],-0.1
same,glycan array binding signal (z-score),[29],-0.187
same,glycan array binding signal (z-score),[30],-0.554
same,glycan array binding signal (z-score),[31],-0.216
same,glycan array binding signal (z-score),[32],0.182
same,glycan array binding signal (z-score),[33],-0.125
same,glycan array binding signal (z-score),[34],-0.206
same,glycan array binding signal (z-score),[35],-0.208
same,glycan array binding signal (z-score),[36],-0.169
same,glycan array binding signal (z-score),[37],-0.205
same,glycan array binding signal (z-score),[38],-0.205
